Measured values from the supplement of paper PMC8813932.
Counter-ions that a name gives are not always drawn. ± gives the standard deviation of the averaged measurements. The list shows a part of the results. Most values come without repeats; read them as rough.

How the values were obtained:
Assay in all cases: log2 surviving fraction relative to plate median (drug vs vehicle, or drug+dl922-947 vs dl922-947 alone); ovarian cancer lines: OVCAR4 is platinum-sensitive while Ov4Cis resists cisplatin and Ov4Carbo carboplatin; higher = more cell survival
Conditions in all cases: compound concentration: 10 uM, 192 h
[1] = test system: OVCAR4
[2] = test system: Ov4Carbo
[3] = test system: Ov4Cis
[4] = dl922-947 oncolytic adenovirus co-treatment: MOI 10
[5] = dl922-947 oncolytic adenovirus co-treatment: none

SMILES	log2 surviving fraction [1, 4]	log2 surviving fraction [1, 5]	log2 surviving fraction [2, 4]	log2 surviving fraction [2, 5]	log2 surviving fraction [3, 4]	log2 surviving fraction [3, 5]
CCCCCOC(=O)Nc1nc(=O)n([C@@H]2O[C@H](C)[C@@H](O)[C@H]2O)cc1F [Capecitabine (Xeloda)]	0.867 ± 1.1	3.69 ± 4	1.41	1.84	1.3	1.36
CCC[C@@H]1C[C@@H](C(=O)N[C@@H]([C@H]2O[C@H](SC)[C@H](O)[C@@H](O)[C@H]2O)[C@@H](C)O)N(C)C1 [Lincomycin hydrochloride (Lincocin)]	0.138 ± 0.083	0.188 ± 0.038	-0.293	0.35	0.892	0.44
CCN(C)C(=O)Oc1cccc([C@H](C)N(C)C)c1 [Rivastigmine tartrate (Exelon)]	0.00574 ± 0.48	0.115 ± 0.7	-0.789	-0.397	0.0179	0.701
COc1ccc2[nH]c([S@@+]([O-])Cc3ncc(C)c(OC)c3C)nc2c1 [Esomeprazole magnesium (Nexium)]	-0.426 ± 1.2	-0.994 ± 0.34	-0.22	0.834	-1.54	-0.469
CC(C(=O)O)c1ccc2c(c1)Cc1cccnc1O2 (stereo not given) [Pranoprofen]	-0.557 ± 0.87	0.491 ± 0.3	0.709	-0.397	-0.352	0.0834
CC(C)CN(C[C@@H](O)[C@H](Cc1ccccc1)NC(=O)O[C@H]1CO[C@H]2OCC[C@H]21)S(=O)(=O)c1ccc(N)cc1 [Darunavir Ethanolate (Prezista)]	-0.223 ± 0.39	-0.244 ± 0.6	-0.288	0.453	-0.506	-0.157
CNC(=O)c1cc(Oc2ccc(NC(=O)Nc3ccc(Cl)c(C(F)(F)F)c3)cc2)ccn1 [Sorafenib (Nexavar)]	-3.7 ± 1.2	-7.9 ± 1.3	-6.97	-9.85	-4.15	-11.7
CC(C)NCC(O)COc1cccc2[nH]ccc12 (stereo not given) [Pindolol]	0.0836 ± 0.55	-0.0101 ± 0.86	0.537	-0.489	-0.163	-0.121
C=C[C@]1(C)C[C@@H](OC(=O)CS[C@@H]2C[C@H]3CC[C@@H](C2)N3C)[C@]2(C)[C@H](C)CC[C@]3(CCC(=O)[C@H]32)[C@@H](C)[C@@H]1O [Retapamulin]	-0.4 ± 0.35	-0.777 ± 0.86	-1.58	-0.269	-1.69	0.496
CN(C)[C@@H]1C(O)=C(C(=O)NCN2CCCC2)C(=O)[C@@]2(O)C(O)=C3C(=O)c4c(O)cccc4[C@@](C)(O)[C@H]3C[C@@H]12 [Rolitetracycline]	-0.186 ± 0.36	0.778 ± 0.14	-1.55	-0.579	0.192	-0.118
COC(c1ccccc1)(c1ccccc1)[C@H](Oc1nc(C)cc(C)n1)C(=O)O [Ambrisentan]	0.475 ± 0.45	0.371 ± 0.23	0.00419	-0.256	-0.285	-0.177
CC(C)(C)C(=O)C(Oc1ccc(Cl)cc1)n1ccnc1 (stereo not given) [Climbazole]	-0.824 ± 0.76	-0.958 ± 0.97	1.02	0.191	-0.853	-0.00153
CN1C(C(=O)Nc2ccccn2)=C(O)c2ccccc2S1(=O)=O [Piroxicam (Feldene)]	-0.161 ± 0.027	0.703 ± 0.33	-0.125	0.763	0.211	-0.0485
CCCCOc1ccc(CC(=O)NO)cc1 [Bufexamac]	-2.46 ± 0.85	-1.67 ± 0.74	-0.02	-0.49	-0.849	-1.25
CCCN[C@H]1CCc2nc(N)sc2C1 [Pramipexole dihydrochloride monohydrate]	-0.946 ± 0.6	-0.132 ± 1.3	-0.376	-0.588	-0.486	-0.286
